According to PubChem BioAssay AID686971 (National Center for Advancing Translational Sciences (NCATS), 2013):
About 7,500 (2.1%) of roughly 360,000 compounds were called active. The shares of active, inactive and inconclusive entries below differ from those in the screen. Calls follow the shape of the dose curve; as a rule, active = well fitted cell-killing curve with a large enough effect; inconclusive = small, poorly fitted or top-dose-only effect, or effect the other way, or another doubt; inactive = no such curve, though single readings can be large or run the other way. Potencies of inconclusive entries are left out as doubtful fits.

test: qHTS for induction of synthetic lethality in tumor cells producing 2HG: qHTS for the HT-1080-IDH1KD cell line; details: HT-1080 IDH1 knockdown viability, ATP luminescence, 48 h; activity, negative = toxicity: at 46.1 µM (top of the series) unless noted;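 as to activity, negative = toxicity: 0% = DMSO wells and -100% = cell-free medium wells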
Outline: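 HT-1080-IDH1KD cells (IDH1 knocked down), 750/well in RPMI with 5% FBS, treated with compound 48 h at 37 degrees C. Viability by CellTiter-Glo luminescence, normalised to DMSO and no-cell wells; concentration-response curves classed.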
Potency is read from the fitted curve at half-maximal effect; tags tell the direction and shape of the fitted curve.

| Compound | Potency | activity, negative = toxicity |
| --- | --- | --- |
| Cc1sc(-n2c(C)cc(/C=C3\SC(=S)NC3=O)c2C)c(C#N)c1C | active: 11.2 µM |  |
| CCc1ccc(S(=O)(=O)/N=C2\C=C(Nc3ccc(C(=O)O)cc3)C(=O)c3ccccc32)cc1 | active: 18.4 µM |  |
| CC(=O)Nc1nc2n(n1)C(c1ccccc1)C=C(c1ccccc1)N2 (centres undefined) | inconclusive [rising, single point] |  |
| Cc1ccc2c(c1)C(O)(c1c(C)[nH]c3ccccc13)C(=O)N2 (centres undefined) | inconclusive [cytotoxic, single point] |  |
| CC(C)OC(=O)C(C)Nc1ccc(F)c(Cl)c1 (centres undefined) | inactive |  |
| CCOc1ccc(C(CCc2ccccc2)NC(=O)c2ccccc2)cc1OCC (centres undefined) | inconclusive [cytotoxic, single point] |  |
| CN1C(=O)C2(N=c3ccccc3=N2)c2ccccc21 | inconclusive [cytotoxic, partial curve, poor fit] |  |
| Cn1c(=O)[nH]c(=O)c2c1nc(CN1CCN(c3ccccc3F)CC1)n2CCCc1ccccc1 | inactive |  |
| O=S1(=O)N=C2CCCCCN2C(c2ccc(Br)cc2)N1 (centres undefined) | inconclusive [rising, partial curve, poor fit] |  |
| COc1ccc(-c2onc(C)c2-c2cnn(-c3ccccc3)c2)c(O)c1 | inconclusive [cytotoxic, single point] |  |
| O=C(Nc1ccc(Cl)c(C(F)(F)F)c1)NC1CC2CCCC(C1)N2C1CC1 (centres undefined) | inconclusive [cytotoxic, single point] |  |
| CCCc1cc(=O)oc2cc(OCC(=O)Nc3ccc(S(N)(=O)=O)cc3)ccc12 | inactive |  |
| CCNC(=S)NNC(=O)c1cc(-c2ccc(OCC)cc2)nc2ccccc12 | active: 5.01 µM |  |
| Cc1ccsc1/C=C(\C#N)C(=O)NCc1ccco1 | inconclusive [cytotoxic, single point] |  |
| COc1ccc(C(CC(=O)Nc2ccccn2)N2Cc3ccccc3C2=O)cc1 (centres undefined) |  | inconclusive: -4.72% [cytotoxic] |
| COc1ccc(C2NC(=S)NC3=C2CCc2cc(OC)ccc23)cc1 (centres undefined) | inconclusive [cytotoxic, single point] |  |
| CCCCC1CN2CCc3c([nH]c4ccccc34)C2(C)C1 (centres undefined) | inconclusive [cytotoxic, partial curve] |  |
| CCOC(=O)c1c(S(=O)(=O)NCC(=O)Nc2cccc(C)c2C)c(C)n(C)c1C | inactive |  |
| CC(C)C1C(C#N)=C(N)Oc2n[nH]c(-c3ccc4ccccc4c3)c21 (centres undefined) | inconclusive [cytotoxic, partial curve] |  |
